The supplement of paper PMC10126150
Values marked as one replicate rest on one cluster of the flow cell; about a third of the high ones do not repeat.

The sequences below were run on ATP (assay: switch fluorescence ratio, 500 uM ATP over buffer (Cy3 cluster intensity, sum of 5 cycles each) (fold (ratio)); higher = stronger signal-on switching upon ATP binding; sequences stand for … in TCGTCGGCAGCGTCAGATGTGTATAAGAGACAGTTTTTTTTTTTTTTTTTTTTTTTTT…TC). Settings: aptamer strand: ATP DNA aptamer (quencher-CACCTGGGGGAGTATTGCGGAGGAAGG + anchor), 100 nM annealed; ATP concentration: 500 uM; one replicate.
Outline: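 After annealing to 100 nM quencher-labelled ATP aptamer, Cy3-labelled switching-strand clusters on a modified Illumina MiSeq flow-cell were imaged in selection buffer. A second image followed after 15 min with 500 uM ATP at 22 °C, and five such buffer/ATP cycles were done, each separated by NaOH stripping and re-annealing. The fluorescence ratio, averaged per switch-domain sequence, is summed target-cycle over summed buffer-cycle Cy3 intensity per cluster, with clusters outside 100-1000 RFU excluded.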
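Note: ATP exposure 15 min at 22 °C before imaging.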

| Sequence | switch fluorescence ratio |
| --- | --- |
| TGTTGATGTG | 0.961 |
| TGTTGCGCTG | 0.99 |
| TGTTGGACCC | 0.999 |
| TGTTGGAGCT | 1.02 |
| TGTTGGCTTC | 1.03 |
| TGTTGGGCAT | 0.977 |
| TGTTGGGGC | 1 |
| TGTTGTTAAG | 0.988 |
| TGTTTATGCC | 1.03 |
| TGTTTCTGAC | 1.02 |
| TGTTTTTCGC | 1 |
| TTAAAACAAT | 0.969 |
| TTAAACATTT | 0.981 |
| TTAAACGATC | 0.993 |
| TTAAAGAA | 1.03 |
| TTAAAGTATA | 0.978 |
| TTAAAGTATT | 1.05 |
| TTAAATAAC | 0.966 |
| TTAAATTCGT | 1.02 |
| TTAACAAAGT | 1.25 |
| TTAACAAAT | 0.966 |
| TTAACAGGAG | 0.994 |
| TTAACATGA | 0.994 |
| TTAACATGGT | 1.05 |
| TTAACGCAGC | 1.39 |
| TTAACGGATG | 1.01 |

| Sequence | switch fluorescence ratio |
| --- | --- |
| TTAACTAGCC | 1.02 |
| TTAAGAATAG | 1 |
| TTAAGATTTG | 1.02 |
| TTAAGCGTAA | 1.07 |
| TTAATACCCA | 2.36 |
| TTAATATATA | 0.994 |
| TTAATGCACT | 1.02 |
| TTAATTCGTG | 1 |
| TTAATTGAG | 1.01 |
| TTAATTGTAA | 0.986 |
| TTAATTTACC | 1.11 |
| TTAATTTACG | 1.06 |
| TTACAAATAC | 1.31 |
| TTACAATCTT | 1.02 |
| TTACACGCTG | 0.989 |
| TTACAGGGAA | 0.949 |
| TTACAGGTGT | 3.26 |
| TTACAGTTCC | 1.13 |
| TTACATTATT | 1.01 |
| TTACCAGTTC | 0.992 |
| TTACCCGAGT | 1.03 |
| TTACCGAAGT | 1.36 |
| TTACCGCGAG | 0.994 |
| TTACCTCGTT | 1.03 |
| TTACGAAG | 0.979 |
| TTACGAAGAG | 1.03 |

| Sequence | switch fluorescence ratio |
| --- | --- |
| TTACGCACCG | 1.52 |
| TTACGCACGG | 1.36 |
| TTACGCCTGG | 1.66 |
| TTACGCGGCA | 1.02 |
| TTACGCTAC | 2 |
| TTACGCTAGT | 1.03 |
| TTACGCTGAC | 2.93 |
| TTACGGACAC | 1.23 |
| TTACGGATTT | 1.07 |
| TTACGTCGGA | 1.06 |
| TTACGTCTTT | 1 |
| TTACGTGTAT | 1.02 |
| TTACTAACCA | 1.07 |
| TTACTATATA | 1.09 |
| TTACTCACCT | 1.42 |
| TTACTCCACC | 1.18 |
| TTACTCGGGT | 0.968 |
| TTACTCTACA | 1.31 |
| TTACTCTTCA | 1.05 |
| TTACTGACAG | 1.12 |
| TTACTTCGAG | 1 |
| TTACTTCGGG | 1.01 |
| TTAGAAATG | 1 |
| TTAGAAATTG | 1.07 |
| TTAGAACCAA | 1.01 |
| TTAGAACGGC | 0.92 |

| Sequence | switch fluorescence ratio |
| --- | --- |
| TTAGAATAAC | 2.57 |
| TTAGACAAGT | 1.02 |
| TTAGACCTAG | 0.973 |
| TTAGACGGTA | 1.11 |
| TTAGACTAGC | 1.03 |
| TTAGACTTGC | 0.998 |
| TTAGAGGTGG | 1.01 |
| TTAGAGTTAA | 0.972 |
| TTAGATTAG | 1 |
| TTAGCAACTT | 1.35 |
| TTAGCCAAA | 1.01 |
| TTAGCGGAGG | 0.977 |
| TTAGCTGCTA | 0.975 |
| TTAGGAACTG | 0.972 |
| TTAGGAGCCT | 0.986 |
| TTAGGAGTAG | 0.966 |
| TTAGGCAGCG | 0.982 |
| TTAGGCATCG | 0.982 |
| TTAGGCCTTG | 0.967 |
| TTAGGCGCA | 1.03 |
| TTAGGGCCTT | 1.04 |
| TTAGGGTTAA | 1.01 |
| TTAGGGTTAT | 0.997 |
| TTAGGTAAGC | 0.989 |
| TTAGTAGTAA | 1.03 |
| TTAGTAGTAT | 0.942 |

| Sequence | switch fluorescence ratio |
| --- | --- |
| TTAGTATCAA | 0.963 |
| TTAGTCCACG | 1.01 |
| TTAGTCCATG | 1 |
| TTAGTCGAGG | 1.05 |
| TTAGTCGATT | 1.01 |
| TTAGTGTATG | 1.01 |
| TTAGTTAGCC | 1.04 |
| TTAGTTCCGC | 1.13 |
| TTAGTTCGC | 1 |
| TTAGTTGT | 0.958 |
| TTATAAAGTA | 1.01 |
| TTATATATA | 0.952 |
| TTATATTGAA | 1.04 |
| TTATATTTA | 1.01 |
| TTATCAATCT | 1.03 |
| TTATCACGCT | 1.06 |
| TTATCATCC | 1.03 |
| TTATCCATCA | 1.03 |
| TTATCCGATT | 0.999 |
| TTATCGAACT | 0.998 |
| TTATCGCTAC | 2.83 |
| TTATCTTTCT | 0.966 |
| TTATGAA | 0.986 |
| TTATGAAGTA | 0.975 |
| TTATGAATTA | 1.03 |
| TTATGACAGT | 1.05 |

| Sequence | switch fluorescence ratio |
| --- | --- |
| TTATGACTTT | 1.01 |
| TTATGAGCTA | 1.01 |
| TTATGCCTGC | 1 |
| TTATGCGCTA | 1.1 |
| TTATGGTGTA | 0.985 |
| TTATGTACGC | 1.04 |
| TTATGTGAAC | 1.03 |
| TTATGTGTGC | 1.04 |
| TTATGTTAAT | 1.03 |
| TTATGTTGAT | 1.02 |
| TTATTAACAG | 1.01 |
| TTATTAGCCC | 1.02 |
| TTATTATCGC | 0.998 |
| TTATTCGGGT | 0.957 |
| TTATTGATAC | 1.09 |
| TTATTTAGG | 0.996 |
| TTATTTGAAG | 0.966 |
| TTATTTGACC | 1 |
| TTATTTTAT | 0.979 |
| TTATTTTGCT | 0.986 |
| TTCAAACAGT | 1.02 |
| TTCAAACGCT | 1.06 |
| TTCAAATTCT | 0.985 |
| TTCAAGCTAT | 1.02 |
| TTCAATTGCT | 0.918 |
| TTCACCGGTG | 1.02 |

| Sequence | switch fluorescence ratio |
| --- | --- |
| TTCACGCCTT | 1.06 |
| TTCACGTTGA | 1.07 |
| TTCACTGGGT | 1.01 |
| TTCAGACGGG | 1.02 |
| TTCAGATGGC | 0.992 |
| TTCAGCATAA | 1.28 |
| TTCAGGGCTA | 1.01 |
| TTCAGTAATT | 0.984 |
| TTCAGTGACG | 1.01 |
| TTCAGTGGT | 0.981 |
| TTCAGTTCCT | 1.04 |
| TTCATAATGC | 1.05 |
| TTCATACCCC | 1.1 |
| TTCATAGAGT | 1 |
| TTCATAGTTA | 1.01 |
| TTCATATAAA | 0.979 |
| TTCATCAGCC | 1.22 |
| TTCATCCGCG | 3.21 |
| TTCATGGGAC | 0.995 |
| TTCATTCCTT | 1.06 |
| TTCCAACCGG | 1.07 |
| TTCCACAAGT | 1.01 |
| TTCCACACGT | 1.01 |
| TTCCACTTCT | 1.03 |
| TTCCAGAGCA | 3.03 |
| TTCCAGGTAT | 1.06 |

| Sequence | switch fluorescence ratio |
| --- | --- |
| TTCCATTAAC | 0.996 |
| TTCCATTC | 1.01 |
| TTCCCAGAAG | 1 |
| TTCCCATGGA | 0.966 |
| TTCCCCAAGC | 1.17 |
| TTCCCCTTA | 1.06 |
| TTCCCTGCCC | 1.12 |
| TTCCGACAGG | 1.14 |
| TTCCGCAGAT | 4.53 |
| TTCCGGAGTT | 1.19 |
| TTCCGGCAG | 1.21 |
| TTCCGGCGGC | 1.02 |
| TTCCGTACGG | 1.03 |
| TTCCGTAGTA | 2.62 |
| TTCCGTATAG | 1.62 |
| TTCCGTCTGT | 1 |
| TTCCGTTTTC | 1.24 |
| TTCCTACAAT | 1.21 |
| TTCCTACATA | 1.08 |
